The text below walks through data of the supplement of paper PMC10338343.

± gives the standard deviation. Only a part is listed here, and it is no random draw.

This experiment relates to MIWI (PIWIL1) piRISC loaded with L1MC piRNA (30 nt). Put plainly: pre-steady-state target cleavage rate (min^-1); MIWI and MILI are mouse PIWI proteins and EfPiwi is from a freshwater sponge; tags in brackets are library labels; higher = faster piRNA-guided slicing of the target. To be noted: guide: L1MC piRNA 5'p-UAACUAAAUACUAUGCAAGCUGUAGGUCCU; auxiliary factor: 500 nM mouse GTSF1. In a few lines: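 Cleave-'n-Seq: 1 nM active affinity-purified piRISC with one synthetic guide and 0.1 nM transcribed, DNA-blocked target RNA library were mixed, with or without 500 nM GTSF1 partner protein, in HEPES–potassium acetate buffer at 33 °C for 0–8 or 0–960 min. Uncleaved targets were sequenced and normalised to depth and to weakly complementary targets, three trials were pooled, and k3 was capped at 0.0001 min^-1. The pre-steady-state cleavage rate was fitted […].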
On to UCCACGCUACAGCUUGCAUAGUAUUUAGUUA, for which the “pre-steady-state target cleavage rate” value came out at 0.691 ± 0.045.
As for UCGACCUAGAGCUAGCAUAGUAUUUAGUUA, the figure is 1.11 ± 0.052.
On to UCCUGGAUCAGGUUGCAUAGUAUUAAGUUA, for which the “pre-steady-state target cleavage rate” value is 0.199 ± 0.019.
Turning to UGGACCUACAGGUUGCAUAGUAUUUACUUA, the “pre-steady-state target cleavage rate” value was found to be 0.124 ± 0.018.
Consider UCCUGGAUGCGCUUGCAUAGUAUUUAGUUA, for which the “pre-steady-state target cleavage rate” value amounted to 0.98 ± 0.053.
Regarding UCCUGGAUGUCAUUGCAUAGUAUUUAGUUA, the “pre-steady-state target cleavage rate” value was 0.061 ± 0.0085.
With UCCUGGAACAGCAUGCUUAGUAUUUAGUUA, the “pre-steady-state target cleavage rate” value stood at 0.701 ± 0.059.
As to UGCACCUACAGCUUGCAUACUAUUUAGUUA, the “pre-steady-state target cleavage rate” value worked out at 0.355 ± 0.037.
For the sequence UCCUCCUACAGCUUGCAUAGUUUUUACUUA, the “pre-steady-state target cleavage rate” value was found to be 0.122 ± 0.02.
On to UCCUGGAACAGCUUGCAAAGUUUUUAGUUA, for which the “pre-steady-state target cleavage rate” value was 0.267 ± 0.022.
With UCCUGCUACAGCUUGCAUAGUACUUAGUUA, the “pre-steady-state target cleavage rate” value was found to be 0.573 ± 0.034.
The same measure for UCCUGCUACAGGUUGCUUAGUAUUUAGUUA: 1.08 ± 0.073; for UCCUCCUACAGGAUGCAUAGUAUUUAGUUA: 1.05 ± 0.055; for AGGACCUACAGCUCUGCAUAGUAUUUAGUUA: 1.56 ± 0.1.
Regarding UCCUGGAUGAGCUUGCAUUGUAUUUACUUA, the “pre-steady-state target cleavage rate” value was found to be 0.0649 ± 0.016.
For UCCUCCUACAGCUUUCAUAGUAUUUAGUUA, the “pre-steady-state target cleavage rate” value turned out to be 0.536 ± 0.026.
Take UCCUGGAUCAGGUUGCUUAGUAUUUAGUUA: the “pre-steady-state target cleavage rate” value turned out to be 0.194 ± 0.021.
As to UCCUGCUUCAGCUUGGAUAGUAUUUAGUUA, the “pre-steady-state target cleavage rate” value was 1.18 ± 0.078.
As for AGGACCUACAGCUUGGUUAGUAUUUAGUUA, the figure is 1.31 ± 0.068.
On to UCGACCUACAGCUAGCAUAGAAUUUAGUUA, for which the “pre-steady-state target cleavage rate” value amounted to 0.381 ± 0.029.
As to AGGACCUACAGCUUGCAUAGUAAAAAGUUA, the “pre-steady-state target cleavage rate” value is 0.489 ± 0.058.
Regarding UCCUGGAUGAGCUCUGCAUAGUAUUUAGUUA, the “pre-steady-state target cleavage rate” value worked out at 0.457 ± 0.049.
As for UCGACCUACAGCUAGCAUAGUUUUUAGUUA, the figure is 0.376 ± 0.029.
The same measure for UCCUCCUACAGCUUGCAUAGUAUAUACUUA: 0.183 ± 0.032.
